Each structure is given as a SMILES string. Screen size: about 45,000 compounds; about 200 (0.44%) were called active. Roughly 7% stayed inconclusive and do not appear here. The call rests on the fitted dose curve; in most records, active means well fitted activation curve with a large enough effect; inconclusive means small, poorly fitted or top-dose-only effect; inactive means no such curve, though single readings can be large or run the other way. The list shows a part of the results.

The assay can be described thus: qHTS of TDP-43 Inhibitors: NCGC Sytravon Library Screen. Further: 0% is about no effect; nearly all actives have a fitted effect of over 55% in size. As to conditions: yeast TDP-43 toxicity rescue, BacTiter-Glo growth, 24 h; series mostly up to 46.1 µM; growth rescue (activation): at the top concentration. The gist of the method:
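TDP-43-expressing yeast, pregrown in raffinose, seeded at OD600 0.02 in galactose medium with compound for 24 hr at 30 deg C. Growth read by BacTiter-Glo luminescence, so rescue of toxicity appears as activation.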
Background: In qHTS, concentration-response curves come from the screen itself.
Consider `CC(=O)NCCCc1nc2ccccc2n1Cc1ccccc1F`, for which the “growth rescue (activation)” value was inactive: -12.7%.
In the case of `O=C(Nc1ccc(F)c(Cl)c1)c1cc(C2CCCN(S(=O)(=O)c3cccc4cccnc34)C2)on1` (stereo not drawn) it was inactive: 17.7%; in that of `COc1cccc(NC(=S)NCc2cccnc2)c1`, inactive: 4.17%.
In the case of `Cc1nnc(NC(=O)CSc2nnc(CCNC(=O)c3ccccc3F)n2C)s1` it was inactive: -10.2%; in that of `O=C(/C=C/c1cccc(Cl)c1)NCCc1ccccc1`, inactive: 16.4%.
In the case of `COCc1nnc(NC(C)=O)s1` it was inactive: 7.05%; in that of `CCC(C)(C)N(C(=O)CCC(=O)Nc1cc(C)on1)C(C(=O)NC(C)(C)C)c1ccc(OC)cc1` (stereo not drawn), inactive: -1.72%; in that of `CCOC(=O)c1cnc(-n2nc(C)cc2C)nc1NC1CCCCC1`, inactive: -44.6%.
As to `COc1ccc(S(=O)(=O)N2CC(O)C[C@H]2C(=O)OCC(=O)N2CCCCCC2)cc1` (stereo partly drawn), the “growth rescue (activation)” value is inactive: -5.73%.
In the case of `COC(=O)c1nn(-c2ccccc2)c(Sc2ccc(OC)cc2)c1/C=N/O` it was inactive: 1.55%; in that of `Cc1ccc(F)c(S(=O)(=O)NC(=O)C2(C)CCN2C(=O)CCc2ccccc2)c1` (stereo not drawn), inactive: -24.8%.
The figure for `CC(=O)N1CCN(C(=O)c2ccc(Cl)c(S(=O)(=O)N3CC(C)OC(C)C3)c2)CC1` (stereo not drawn) is inactive: 3.51%; for `CCC(=O)c1ccc(Oc2nc3c(c(=O)n(C)c(=O)n3C)n2CC)cc1` it is inactive: 2.48%; for `CCOc1ccc(NC(=O)Nc2ccc(Br)cn2)cc1` it is inactive: 1.27%.
The figure for `CCOc1ccc(S(=O)(=O)NCC2CCCO2)cc1NC(=O)c1ccccc1F` (stereo not drawn) is inactive: 6.4%.
For `COc1ccc(/C=C/C(=O)NC(=S)Nc2ccc(Br)cn2)cc1`, the “growth rescue (activation)” value is inactive: 4.02%.
In the case of `CSc1ncccc1C(=O)Nc1nc2ccc(S(C)(=O)=O)cc2s1` it was inactive: -1.7%; in that of `COCC1CCCN(Cc2nc(C(c3ccccc3)c3ccccc3)no2)C1` (stereo not drawn), inactive: -1.33%.
In the case of `COc1ccc(C(=O)c2sc3nc(-c4ccc(OC)cc4)ccc3c2N)cc1` it was inactive: 9.03%; in that of `CC(C)/C=C/C(=O)N1CCC(N2CCC(C(=O)N3CCOCC3)CC2)CC1`, inactive: 6.28%; in that of `Cc1ccc(S(=O)(=O)NC(=O)NN2CC3CCCC3C2)cc1` (stereo not drawn), inactive: 6.95%.
In the case of `O=C(Nc1ccccc1)C1=C(c2ccccc2)S(=O)(=O)CCS1(=O)=O` it was inactive: -0.158%.
On to `CCn1c(CN2CCOCC2)nnc1SCC(=O)Nc1ccccc1Cl`, for which the “growth rescue (activation)” value is inactive: 12.4%.
In the case of `CCOC(=O)N1CCN(c2nc(SC)nc3sc4c(c23)CC(C)(C)OC4)CC1` it was inactive: 10.1%; in that of `O=C(OCc1cnc(Cl)s1)c1c(F)cccc1F`, inactive: 28.3%.
Turning to `C/C(=N\NC(=O)c1cc(Cl)ccc1O)c1ccc(Br)s1`, the “growth rescue (activation)” value is inactive: 19.1%.
Consider `Cc1csc(SCC(=O)Nc2ccccc2)n1`, for which the “growth rescue (activation)” value was inactive: -0.346%.
`CCN(CC)S(=O)(=O)c1ccc(N2CCOCC2)c(NC(=S)NC(=O)c2ccco2)c1`: the “growth rescue (activation)” value was inactive: 29.8%.
Take `Cc1c(CC(=O)O)c(=O)oc2c(C)c3occ(-c4ccc(F)cc4)c3cc12`: the “growth rescue (activation)” value is inactive: -1.11%.
Consider `CCc1nnc(NC(=O)CSc2nc3c(cc2C#N)CCC3)s1`, for which the “growth rescue (activation)” value was inactive: 23.8%.
In the case of `NC(=O)COC(=O)c1cc(=O)[nH]c2ccc(S(=O)(=O)Nc3ccc(F)cc3)cc12` it was inactive: 1.72%.
In the case of `O=C(N/N=C/c1ccccc1F)c1ccccc1OCc1ccccc1` it was inactive: 10.5%; in that of `COc1cccc(CC(=O)Nc2nc3c(s2)C(=O)CC(C)(C)C3)c1`, inactive: -4.88%; in that of `O=C(COC(=O)COc1ccc(Cl)cc1)NCc1ccc2c(c1)OCO2`, inactive: 5.05%.
The figure for `CCNC(=O)NC(=O)C(C)N1C(=O)NC(c2ccccc2)(c2ccccc2)C1=O` (stereo not drawn) is inactive: 10.6%; for `CC(C(=O)OCC(=O)Nc1cccc(S(=O)(=O)N2CCOCC2)c1)N1C(=O)c2ccccc2C1=O` (stereo not drawn) it is inactive: 7.04%.
As to `CCOC(=O)c1c(NC(=O)C2C3CCC(O3)C2C(=O)O)sc2c1CCC(CC)C2` (stereo not drawn), the “growth rescue (activation)” value was inactive: 2.61%.
In the case of `CCC(C)Cn1c(C)nc2ccccc21` (stereo not drawn) it was inactive: 23.5%; in that of `O=C(CSc1nc(O)c(Cc2ccccc2)c(=O)[nH]1)Nc1nnc(SCc2ccccc2)s1`, inactive: 24.1%; in that of `CCOc1ccc(CN(CCc2ccc3c(c2)OCO3)Cc2cc(OC)c(OC)cc2OC)cc1`, inactive: -5.02%.
Consider `Cc1nc2ccc(NC(=O)c3cc(S(=O)(=O)N4CCOCC4)ccc3C)cc2s1`, for which the “growth rescue (activation)” value is inactive: 1.09%.
In the case of `O=C(/C=C/c1ccccc1)N(Cc1cccs1)C1CCS(=O)(=O)C1` (stereo not drawn) it was inactive: 7.91%; in that of `C/C(N)=C(/C#N)C(=O)CSc1nnc(Nc2c(C)cccc2C)s1`, inactive: 26.5%; in that of `Cc1cccc(N(CC(=O)NC2CCCC2)C(=O)c2csnn2)c1C`, inactive: 7.84%.
The figure for `O=C(CC(C(=O)O)c1ccc(Cl)cc1)c1ccccc1` (stereo not drawn) is inactive: -1.86%; for `COc1cccc(CNc2nc3cc(-c4cccc(C(=O)NCCO)c4)sc3c(=O)n2C)c1` it is inactive: 6.32%; for `Cc1noc(NS(=O)(=O)c2ccc(NC(=O)C(C)(C)C)cc2)c1C` it is inactive: 4.05%.
Consider `CC(C)Oc1ccc(S(=O)(=O)N2CCOCC2)cc1NC(=O)Cc1ccsc1`, for which the “growth rescue (activation)” value was inactive: -4.51%.
In the case of `COc1ccc(CC(=O)N2CCc3cc(OC)c(OC)cc3C2C)c(OC)c1` (stereo not drawn) it was inactive: -1.36%; in that of `NS(=O)(=O)c1ccc(CNC(=O)/C=C/c2c(F)cccc2Cl)cc1`, inactive: -0.504%; in that of `Cn1ccsc1=NC(=O)c1cccc(OC(F)F)c1`, inactive: 32.8%.
In the case of `COc1ccc(NC(=O)c2cc(C)cc(C)c2)cc1[N+](=O)[O-]` it was inactive: 15.5%.
Turning to `CCOc1ccc(N(CC(=O)NC2CCCCC2)C(=O)CCCC(=O)Nc2ccccn2)cc1`, the “growth rescue (activation)” value was inactive: -16.8%.

The values are drawn from PubChem BioAssay AID1347073 (National Center for Advancing Translational Sciences (NCATS), 2019).
